Assay results published in PubChem BioAssay AID602313 (National Center for Advancing Translational Sciences (NCATS), 2012).
Out of some 390,000 compounds screened, about 760 (0.19%) were called active. Roughly 3% stayed inconclusive and do not appear here. Calls come from the whole dose curve; as a rule, active = well fitted inhibition curve with a large enough effect; inconclusive = small, poorly fitted or top-dose-only effect; inactive = flat fitted curve, though single readings scatter. The list shows a part of the results, in another mix than the full data.

Test: qHTS for Inhibitors of Vif-A3F Interactions: qHTS; note: nearly all actives have a fitted effect of over 65% in size; for activity, negative = active: % of control where 0% means no effect
Details: HeLa A3F-eYFP + Vif (tagged APOBEC3F with the HIV-1 protein that degrades it), YFP fluorescence increase; series mostly up to 46.1 µM; activity, negative = active: at the top concentration
Excerpt: The recent discovery and characterization of host restriction factors, which provide a potent defense to invading retroviruses, has provided new targets for antiviral drug development. APOBEC3G (A3G) and APOBEC3F (A3F) are potent cytidine deaminases that block HIV-1 replication; HIV-1 expresses the Vif protein, which counteracts A3G and A3F by binding to them and inducing their proteasomal degradation. The Vif-A3G and Vif-A3F interactions provide two potential targets for development of small molecules which can interfere with the ability of Vif to degrade A3G or A3F. […] To identify inhibitors that can interfere with Vif mediated degradation of A3G and A3F, we have developed Hela cell lines that stably express A3G or A3F tagged with eYFP at the C-terminal end (A3G-eYFP or A3F-eYFP, respectively) and Vif. In the absence of an inhibitor, Vif induces degradation of A3G-eYFP and A3F-eYFP, and the cells are not fluorescent. In the presence of an inhibitor, it is expected that Vif will be unable to degrade A3G-eYFP and/or A3F-eYFP, resulting in an increase in yellow fluorescence. In this assays Vif A3F was screened against the Molecular Library Small Molecule Repository (MLSMR). NIH Chemical Genomics Center [NCGC] NIH Molecular Libraries Probe Centers Network [MLPCN] MLPCN Grant: MH093245 Assay Submitter (PI): Vinay Pathak, National Cancer Institute
5 uL of 700 cells/well of A3F-YFP cells are dispensed into black, clear bottom plates. The plates are incubated overnight at 37 deg C. 23 nL of compounds are added by pintool. The plates are incubated overnight at 37 deg C and then read on the TTP Acumen (Ex 488/ Em 500-530).
Potency is the fitted concentration of half-maximal effect.

Row | Compound | activity, negative = active | Potency
1 | CCOC(=O)C(Cc1ccc(NC(=O)/C(=C/c2ccccc2)NC(=O)c2ccccc2)cc1)N1C(=O)c2ccccc2C1=O (stereo unspecified) | inactive: 6.59% | 
2 | Cc1cn(-c2cc(C(=O)Nc3ccc(C)c(NC(=O)C(=O)c4c[nH]c5ccccc45)c3)cc(C(F)(F)F)c2)cn1 | inactive: -9.18% | 
3 | Cc1ccn2cc(C(=O)NCc3ccco3)nc2c1 | inactive: 19.2% | 
4 | O=C(Nc1cccc2ccccc12)/C(=C/c1cccc([N+](=O)[O-])c1)NC(=O)c1cccs1 | inactive: 3.33% | 
5 | Cc1cccc(NS(=O)(=O)c2ccc3[nH]c(=O)[nH]c3c2)c1C | inactive: -7.71% | 
6 | CC1CCC(C(C)C)C(OC(=O)Cn2c(-c3ccccc3)[n+](C)c3ccccc32)C1 (stereo unspecified) | inactive: -9.99% | 
7 | Cc1coc(NC(=O)CSc2nc(-c3ccncc3)cc(C(F)(F)F)c2C#N)n1 |  | active: 11.2 µM
8 | O=C(NCC1CCCO1)c1cccc2c1C(=O)c1ccc(N3CCC(Cc4ccccc4)CC3)cc1S2(=O)=O (stereo unspecified) |  | active: 25.1 µM
9 | O=C(NCc1ccc(Cl)cc1)C1CCN(S(=O)(=O)c2cccc3nonc23)CC1 | inactive: 1.64% | 
10 | COc1ccc(-c2cc(C(=O)Nc3cc(OC)cc(C(=O)Nc4cccc(C(F)(F)F)c4)c3)[nH]n2)cc1 | inactive: -18.7% | 
11 | Cc1ccc(Nc2nnc(SC/C(O)=C(\C#N)c3nc4ccccc4[nH]3)s2)c(C)c1 | inactive: -29.8% | 
12 | COc1cc(/C=C2/SC(=Nc3ccc(O)cc3)NC2=O)ccc1O |  | active: 25.1 µM
13 | COc1ccccc1N1CCN(C(=O)CNC(=O)c2cn(-c3ccccc3OC)c(=O)c3ccccc23)CC1 | inactive: 30.2% | 
14 | COc1ccc(CNC(=O)CCCn2c(=O)c3cccn3c3cccnc32)cc1 | inactive: 0.678% | 
15 | COc1cc2c3nnc(-c4ccc(F)cc4)c-3cn(Cc3ccccc3F)c2cc1OC |  | active: 25.1 µM
16 | O=C1CSC(=Nc2cccc(Cl)c2Cl)N1Cc1cccnc1 | inactive: 31% | 
17 | CCOCCCNC(=O)/C(C#N)=C/c1ccc([N+](=O)[O-])o1 |  | active: 12.6 µM
18 | CC(C)(C)NC(=O)[C@@H]1C[C@@H]2CCCC[C@@H]2CN1C[C@@H](O)[C@H](Cc1ccccc1)NC(=O)[C@H](CC(N)=O)NC(=O)c1ccc2ccccc2n1 | inactive: -15.5% | 
19 | [O-]/C(=C(\C(=S)Nc1cccc2ccccc12)[n+]1ccccc1)c1ccc2c(c1)OCCO2 | inactive: -2.94% | 
20 | CCOc1ccccc1NC(=O)Cn1nnc(C(=O)NCc2cccs2)c1N | inactive: -14.1% | 
21 | COc1ccc(NCc2cc3cc4c(cc3n(CC(=O)Nc3cc(C)ccc3C)c2=O)OCCO4)cc1 |  | active: 12.6 µM
22 | Cn1c(N/N=C/c2cc3ccccc3nc2Cl)nc2ccccc21 |  | active: 22.4 µM
23 | Cc1cc(/C=C2\NC(=S)NC2=O)c(C)n1-c1cccnc1 | inactive: -18.5% | 

Row | Compound | activity, negative = active | Potency
24 | O=C(N/N=C/C(Cl)=C/c1ccccc1)c1ccco1 | inactive: -15.8% | 
25 | O=C1C(=Cc2cccn2-c2ccccc2)C(=O)c2ccccc21 |  | active: 28.2 µM
26 | CCCCCCN1C[C@@H](O)[C@H](n2cc(COC(=O)c3ccccc3)nn2)C[C@@H]1c1ccc(C)cc1 | inactive: -10.1% | 
27 | CC1(C)CC(=O)C2=C(C1)OC(N)=C(C#N)C2c1ccccc1[N+](=O)[O-] (stereo unspecified) | inactive: -34.1% | 
28 | CCN1/C(=C/c2cc[n+](C)cc2)C=Cc2cc(C)ccc21 |  | active: 12.6 µM
29 | COc1cc(CNc2ccc3[nH]c(=O)[nH]c3c2)ccc1OCc1ccc(F)cc1Cl | inactive: -8.33% | 
30 | COc1cc(Nc2nc3ccccc3n3nnnc23)cc(OC)c1OC |  | active: 6.31 µM
31 | CCN1C/C(=C/c2ccc(N3CCOCC3)cc2)C(=O)/C(=C/c2ccc(N3CCOCC3)cc2)C1 |  | active: 25.1 µM
32 | Cc1c2ccccc2nc2c(F)c(N(C)C)c(F)c(F)c12 |  | active: 25.1 µM
33 | O=C1C2C(C(=O)N1CCN1CCN(Cc3ccc([N+](=O)[O-])cc3)CC1)[C@H]1C=C[C@@H]2C1 (stereo partly specified) | inactive: -1.65% | 
34 | COc1ccc([N+](=O)[O-])cc1NC(=O)CC1SC(=Nc2cccc(C)c2C)N(/N=C/c2cccc(OC)c2OC)C1=O (stereo unspecified) | inactive: 2.71% | 
35 | CCO/C=C1/C(=O)N(CC)c2ccccc21 | inactive: -6.83% | 
36 | C[C@@H]1CN([C@H](C)CO)C(=O)c2cc(Br)cnc2O[C@H]1CN(C)Cc1ccccc1 | inactive: -1.03% | 
37 | N#C/C(=C/C=C/c1ccccc1)C(=O)Nc1ccccc1 | inactive: -1.65% | 
38 | O=C(O)CSc1cccc2cccnc12 | inactive: 4.24% | 
39 | O=C(/C=C(\O)c1ccc(Cl)cc1)C(=O)NNC(=O)C(O)(c1ccccc1)c1ccccc1 | inactive: -0.539% | 
40 | Cn1nnnc1SCCNCc1cc(Br)ccc1OCc1ccccc1Cl |  | active: 12.6 µM
41 | CCCCCC1C(=O)N2C=C(c3ccccc3)c3ccccc3N2C1=O (stereo unspecified) | inactive: 18.8% | 
42 | O=C(NCCCn1ccnc1)/C(=C\c1cccs1)NC(=O)c1ccco1 | inactive: -21.6% | 
43 | COc1ccc2c(C)cc(SCC(=O)N3CCOCC3)nc2c1 |  | active: 25.1 µM
44 | CC(NC(=O)c1ccco1)c1nc(-c2ccccc2)no1 (stereo unspecified) | inactive: 4.46% | 
45 | O=C1c2ccccc2C(=O)c2c(/C=C/N3CCCCC3)ccnc21 |  | active: 22.4 µM
46 | Cc1occc1C(=O)N/N=C/C(Br)=C\c1ccccc1 | inactive: -27.2% | 

Row | Compound | activity, negative = active | Potency
47 | CN(CCC#N)C(=O)COC(=O)c1c2c(nc3ccccc13)/C(=C/c1ccco1)CC2 | inactive: -7.58% | 
48 | N#C/C(=C/c1ccc(-c2ccccc2[N+](=O)[O-])o1)C(N)=O | inactive: -3.58% | 
49 | CCN1C(=O)/C(=C\c2cn(-c3ccccc3)nc2-c2cccnc2)SC1=S | inactive: -28.1% | 
50 | O=c1oc(/C=C/c2ccc([N+](=O)[O-])s2)nc2ccccc12 |  | active: 28.2 µM
51 | Cc1ccc(S(=O)(=O)c2nc(-c3ccco3)oc2SC(C)C)cc1 | inactive: 1.36% | 
52 | COC1=C(Br)C(=O)c2ncccc2C1=O |  | active: 11.2 µM
53 | CCN(CC)CCNC(=O)C1CCN(S(=O)(=O)c2c(C)noc2/C=C/c2ccccc2F)CC1 | inactive: -2.45% | 
54 | O=[N+]([O-])c1ccc(N/N=C/c2c[nH]c3ccccc23)cc1 |  | active: 12.6 µM
55 | Cc1ccc(C)c(N2CCN(C(=O)c3ccc4c(c3)c(C)c(C)n4C)CC2)c1 | inactive: -13.7% | 
56 | CCN1CCN(c2cc(C)c3cc(NC(=O)c4ccc(OC)c(OC)c4)ccc3n2)CC1 | inactive: -3.73% | 
57 | Cc1ccc(C(=O)N/C(=C\c2ccc(-c3cccc([N+](=O)[O-])c3)o2)C(=O)NCCCN(C)C)cc1 | inactive: -11.6% | 
58 | CC(/C=N/NC(=O)CSc1ccccn1)=C\c1ccc(C(C)C)cc1 | inactive: 5.54% | 
59 | COc1cccc(NC(=S)N2CCC(c3ccc(C)cc3)C2)c1 (stereo unspecified) | inactive: 28% | 
60 | Cn1cc(C(=O)N/N=C/C(Br)=C\c2ccccc2)ccc1=O | inactive: -25.3% | 
61 | N#Cc1cccc(NC(=O)CSc2ccc3c4c(cccc24)C(=O)c2ccccc2-3)c1 |  | active: 11.2 µM
62 | CC(C)C(NC(=O)OCc1ccccc1)C(=O)OCC(=O)NCc1ccco1 (stereo unspecified) | inactive: -1.1% | 
63 | Cc1ccc(Cl)c2c(N=Nc3ccccc3)c(O)[nH]c12 |  | active: 8.91 µM
64 | CCCCCCN1C[C@@H](O)[C@H](n2cc(-c3ccc(F)cc3)nn2)C[C@@H]1c1ccccc1 | inactive: -19.5% | 
65 | O=C(NCCc1cccs1)c1ccc(Cl)c(Cl)c1 |  | active: 2.51 µM
66 | Cc1nc2ccc(NC(=O)c3cc(S(=O)(=O)N(C)c4ccccc4)ccc3Cl)cc2s1 |  | active: 22.4 µM
67 | CCc1ccccc1NC(=O)Cn1nnc(C(=O)NCc2cccc(OC)c2)c1N | inactive: -4.67% | 
68 | CC(C)(C)c1ccc(OCC(=O)Nc2ccc3c4c(cccc24)C(=O)NC3=O)cc1 |  | active: 12.6 µM
69 | CCCN(C(=O)c1cn(C)c(=O)c2ccccc12)c1ccccc1C | inactive: -3.64% | 

Row | Compound | activity, negative = active | Potency
70 | N#CC1=C(N)C(C#N)(C#N)C(c2cccnc2)C2CN(C(=O)OCc3ccccc3)CC=C12 (stereo unspecified) | inactive: -5.91% | 
71 | CCCSc1ccc([C@@H]2[C@@H]3C(=O)N(CC)C(=O)[C@@H]3[C@]3(C(=O)OC)CCCCN23)cc1OC | inactive: -4.74% | 
72 | CC(=C/c1ccccc1)/C=N/NC(=O)CSc1nc(C)cc(C)n1 | inactive: -12.6% | 
73 | COc1cc(N2CCCC2)c(OC)cc1/C=C(/C#N)c1ccc(F)cc1 |  | active: 10 µM
74 | O=S(=O)(Nc1nc2ccccc2nc1N1CCN(c2ccccn2)CC1)c1ccc(Cl)cc1 |  | active: 7.94 µM
75 | CCOC(=O)c1csc(-c2ccc3c(c2)CCO3)n1 | inactive: 25.3% | 
76 | O=C(OCc1cn([C@H]2CN(Cc3cccs3)[C@@H](c3ccc(Cl)cc3)C[C@@H]2O)nn1)c1ccccc1 | inactive: -0.0844% | 
77 | CC(C)(C)c1nnc2sc(SC/C(O)=C(\C#N)c3nc4ccccc4[nH]3)nn2c1=O | inactive: -8.17% | 
78 | Cc1ccc(C(=O)Nc2cccc(C(F)(F)F)c2)cc1NC(=O)c1cnnc2ccccc12 | inactive: -0.93% | 
79 | COc1ccc(Cl)cc1N1C(=O)/C(=C\c2sccc2C)N=C1SCC(=O)NC1CC1 | inactive: -13.9% | 
80 | O=C(N/N=C/C(Cl)=C/c1ccccc1)c1cnccn1 | inactive: -1.46% | 
81 | CC[C@]12CCCN3CCc4c(n(c5ccccc45)[C@@](O)(C(=O)OC)C1)[C@@H]32 | inactive: -10.8% | 
82 | Cc1cccc(N=C2NC(=O)/C(=C\c3cccs3)S2)c1 | inactive: -5.17% | 
83 | O=C(c1ccc(OCCN2CCCCC2)cc1)c1c(-c2ccc(O)cc2)sc2cc(O)ccc12 | inactive: -7.71% | 
84 | CCCCCCN1C[C@H](n2cc(-c3ccc(F)cc3)nn2)[C@@H](O)C[C@@H]1c1ccc(OC)cc1 | inactive: -22.5% | 
85 | O=C(NC1CCS(=O)(=O)C1)c1sc2ccccc2c1Cl (stereo unspecified) | inactive: 14.5% | 
86 | O=C(COC(=O)/C=C/c1cccc(F)c1)Nc1ncccn1 | inactive: 18% | 
87 | CCc1cccc(CC)c1NC(=O)CSc1nc2ccc(N3C(=O)C4C(C3=O)[C@H]3C=C[C@@H]4C3)cc2s1 (stereo partly specified) | inactive: 9.92% | 
88 | O=C(NCc1ccco1)/C(=C\c1cccc([N+](=O)[O-])c1)NC(=O)c1ccco1 | inactive: 2.36% | 
89 | COc1ccc2c(C)cc(SCC#N)nc2c1 |  | active: 22.4 µM
90 | C[C@@H]1COC(=O)[C@H](NC(=O)OCC2c3ccccc3-c3ccccc32)C/C=C\C[C@@H](CC(=O)N[C@@H](CO)Cc2ccccc2)C(=O)N1 | inactive: -1.71% | 
91 | COc1ccc2c(C=Nc3c(C)n(C)n(-c4ccccc4)c3=O)c(O)n(Cc3ccco3)c(=O)c2c1 | inactive: -27.8% | 
